Measurements: PubChem BioAssay AID1345082 (National Center for Advancing Translational Sciences (NCATS), 2018)
About 4,000 (4.3%) of roughly 94,000 compounds were called active. Inconclusive means that the source gave no clear call. Such entries were picked first, then a sample of the others. The call rests on the fitted dose curve; in most records, active means well fitted inhibition curve with a large enough effect; inconclusive means small, poorly fitted or top-dose-only effect; inactive means no such curve, though single readings can be large or run the other way. A potency beside an inconclusive call is a rough fit, not a confirmed value.

Experiment: Cytotoxic Profiling in NIH 3T3 Cell Line of Diverse Libraries Using Quantitative High-Throughput Screening; further: nearly all actives have a fitted effect of over 55% in size
Conditions: NIH 3T3 viability, CellTiter-Glo ATP luminescence, 48-72 h; activity change, negative = cytotoxicity: at 96.7 µM (top of the series) unless noted; series mostly up to 96.7 µM
How it was run: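 Cytotoxicity was measured by CellTiter-Glo ATP luminescence after 48 or 72 h compound exposure at 37 °C. Mouse NIH 3T3 fibroblasts were seeded at 400 cells/well and dosed by 23 nL pin transfer.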
On the % scale 0 is the no-effect control and ±100 the full control effect; potency means the concentration at half of the fitted maximal effect; tags describe the fitted curve by direction and shape.

Row | Compound | Potency | activity change, negative = cytotoxicity | outcome
1 | O=C(NC1CCCCC1)C1CCCN(c2nccc(Nc3ccccc3F)n2)C1 (centres undefined) | active: 14.1 µM | – | –
2 | CCOc1ccccc1NC(=O)Cn1c(N2CCc3ccccc3C2)nc(C)cc1=O | inconclusive: 50.1 µM [inhibitor, partial curve, poor fit] | – | –
3 | CN(Cc1ccccc1C(F)(F)F)C(=O)c1ccc(Cl)nc1 | inconclusive: 44.7 µM [inhibitor, partial curve, poor fit] | – | –
4 | COc1ccc2c(c1)CN(CC1CC1)C(=O)CCN2CC(O)C(F)(F)F (centres undefined) | inconclusive: 50.1 µM [inhibitor, partial curve, poor fit] | – | –
5 | FC(F)(F)c1ccc(CN2CC[C@H](c3nnc(-c4ccccc4)o3)C2)cc1 | inconclusive: 79.4 µM [inhibitor, partial curve, poor fit] | – | –
6 | COc1ccc(-c2cc3c(cn2)CN(Cc2cccnc2)CCN3)cc1OC | – | inactive: -26.5% [at 138 µM] | –
7 | O=C(C1CCCC1)N1CCC(Oc2cnc3c(ccn3-c3cncnc3)c2)CC1 | inconclusive: 10 µM [inhibitor, full curve, poor fit] | – | –
8 | CC(C)Cn1c(=O)c(C(=O)N2CCN(C(=O)c3ccccc3F)CC2)nc2cccnc21 | – | – | inactive
9 | CCN1c2cc(C(=O)NCc3cccc(Br)c3)ccc2C(=O)N2CCCCC21 (centres undefined) | inconclusive: 44.7 µM [inhibitor, partial curve, poor fit] | – | –
10 | C[C@H](N)C(=O)N1CCC(n2nccc2NC(=O)Nc2cccc(F)c2)CC1 | – | – | inactive
11 | COc1ccc(-c2cn3c(n2)CO[C@@H](CNCc2ccc(Cl)cc2)C3)cc1 | active: 100 µM | – | –
12 | O=C(NC1CCc2nn(CC3CC3)c(=O)n2CC1)c1ccc2nc[nH]c2c1 (centres undefined) | – | inactive: -14.1% | –
13 | COc1ccc(C2(c3nc(C4CC(=O)N(c5ccc(C)cc5)C4)no3)CC2)cc1 (centres undefined) | inconclusive: 50.1 µM [inhibitor, partial curve, poor fit] | – | –
14 | COc1ccccc1-c1cccc(CN2CCC(NC(=O)C3CC3)CC2)c1 | inconclusive: 50.1 µM [inhibitor, partial curve, poor fit] | – | –
15 | CNC(=O)c1cc(C2CC2)nc2c1c(C1CCCN(C(=O)c3ccc(Cl)nc3)C1)nn2C (centres undefined) | inconclusive: 70.8 µM [inhibitor, partial curve, poor fit] | – | –
16 | CN(C)C(=O)c1cccc(-c2cc(F)c3nc(N)sc3c2)c1 | inconclusive: 39.8 µM [inhibitor, partial curve, poor fit] | – | –
17 | CC(C)(O)C#Cc1ccc(CN2CCC(CO)(CCCc3ccccc3)CC2)cc1 | inconclusive: 50.1 µM [inhibitor, partial curve, poor fit] | – | –
18 | COCC(=O)NC[C@@H]1C=C(C)[C@H](Cc2nc3ccc(F)cc3[nH]2)C[C@H]1C(C)C | active: 50.1 µM | – | –
19 | COc1cccc(CNC(=O)N2CCC(c3cc(-c4cccc(OC)c4)n[nH]3)CC2)c1 | inconclusive: 50.1 µM [inhibitor, partial curve, poor fit] | – | –
20 | COc1ccc(-c2ccc3nc(-c4ccccc4Br)oc3c2)c(OC)c1OC | inconclusive: 50.1 µM [inhibitor, partial curve, poor fit] | – | –
21 | O=C1NCCCCCCN(Cc2cccc(F)c2)[C@H]2CCC[C@@H]12 | inconclusive: 70.8 µM [inhibitor, single point] | – | –
22 | CCCCSc1nc(N)cc(N2CCCC(OCc3cccnc3)C2)n1 (centres undefined) | inconclusive: 56.2 µM [inhibitor, partial curve, poor fit] | – | –

Row | Compound | Potency | activity change, negative = cytotoxicity | outcome
23 | CC(C)C(=O)N1CCC2(CC1)N(C)C(=O)CS2(=O)=O | – | – | inactive
24 | Cc1cc(C)nc(N2CC3(COCC(=O)N(Cc4cccc(OC(F)(F)F)c4)C3)C2)n1 | – | inactive: -7.32% [at 138 µM] | –
25 | COc1ccc(C(=O)Nc2ccc3c(c2)CN(CCc2ccccc2)C(=O)C(C)O3)cc1OC (centres undefined) | inconclusive: 39.8 µM [inhibitor, partial curve, poor fit] | – | –
26 | CN1CCC(CN2CCC3(CC2)OCCN(c2ccc(F)cc2)C3=O)CC1 | inconclusive: 112 µM [inhibitor, single point] | – | –
27 | COc1ccc(-c2[nH]nc3ncc(C(=O)NCC(C)C)nc23)c(C)c1 | inconclusive: 14.1 µM [inhibitor, full curve, poor fit] | – | –
28 | COc1cc2c(cc1OC)C(CNC(=O)c1cccs1)N(C(=O)Nc1ccccc1F)CC2 (centres undefined) | inconclusive: 35.5 µM [inhibitor, partial curve] | – | –
29 | CCOc1ccccc1NC(=O)NCCn1c(C)cnc1C1CC1 | – | inactive: 4.32% | –
30 | Cc1ccc(CN2CCOC[C@H]2c2ncc(-c3cccc(F)c3)[nH]2)cc1 | active: 79.4 µM | – | –
31 | Cc1ccc(CN2CCC3(CC2)CC(c2cccnc2)=NO3)cc1 | inconclusive: 63.1 µM [inhibitor, partial curve, poor fit] | – | –
32 | COc1ccc(C(=O)Nc2ccc(-c3noc([C@@H]4CCCN4Cc4ccc(OC(F)(F)F)cc4)n3)cn2)cc1 | inconclusive: 11.2 µM [inhibitor, full curve, poor fit] | – | –
33 | CCC1(N2CCN(S(=O)(=O)c3ccc(F)cc3F)CC2)CCN(C(=O)C(C)C)C1 (centres undefined) | – | inactive: -29.1% | –
34 | O=C1NC(=NC2CCCC2)C2(CCCN(Cc3cccnc3)C2)N1c1cccnc1 (centres undefined) | inconclusive: 50.1 µM [inhibitor, partial curve, poor fit] | – | –
35 | O=C(NC1CCN(c2cc(-c3cccs3)[nH]n2)CC1)c1ccccc1 | inconclusive: 44.7 µM [inhibitor, partial curve, poor fit] | – | –
36 | O=C(C1CCCC1)N1CCn2c(nn(-c3ccncc3)c2=O)C1 | inconclusive: 56.2 µM [inhibitor, partial curve, poor fit] | – | –
37 | Cc1ccc(CN2CCCCCCN(C)C(=O)[C@@H]3CCC[C@@H]32)s1 | inconclusive: 50.1 µM [inhibitor, partial curve, poor fit] | – | –
38 | COC(=O)[C@@H]1Cc2ncn(C(C)C)c2CN1S(=O)(=O)c1ccc([N+](=O)[O-])cc1 | – | inactive: 0.067% [at 174 µM] | –
39 | O=C(NCC1CCCO1)c1ccc(-c2ccc(N3CCCCC3)nc2)cc1 (centres undefined) | – | inactive: -1.37% | –
40 | CC(C)OCCNc1nccc(C2(c3ccccc3Cl)CCNCC2)n1 | inconclusive: 89.1 µM [inhibitor, single point] | – | –
41 | C[S+](=O)([O-])N1CCC(Cn2ccc3c(N4CCOCC4)nc(-c4cccc(C(N)=O)c4)cc32)CC1 | inconclusive: 20 µM [inhibitor, full curve, poor fit] | – | –
42 | Cc1cc(C)cc(C(=O)N2CCN(c3cc(-c4ccc(Cl)cc4)[nH]n3)CC2)c1 | active: 39.8 µM | – | –
43 | O=C(NCc1ccc(F)cc1)c1ccc(N2CC3CC(C2)[C@H]2CCCC(=O)N2C3)nc1 (some centres undefined) | inconclusive: 70.8 µM [inhibitor, single point] | – | –
44 | O=C(Nc1cccc(C(F)(F)F)c1)N1C[C@@H](F)[C@@H](OCc2nc3ccccc3[nH]2)C1 | active: 100 µM | – | –

Row | Compound | Potency | activity change, negative = cytotoxicity | outcome
45 | CCN(Cc1ccncc1)C(=O)c1ccc(C2CCNC2)cc1 (centres undefined) | – | inactive: 2.37% | –
46 | O=C1N(C2CCN(S(=O)(=O)c3cccnc3)CC2)C(c2ccccc2)C12CCCC2 (centres undefined) | inconclusive: 50.1 µM [inhibitor, partial curve, poor fit] | – | –
47 | O=C1C(N2CCN(S(=O)(=O)c3cccc(Cl)c3)CC2)CCN1Cc1cccnc1 (centres undefined) | inconclusive: 56.2 µM [inhibitor, partial curve, poor fit] | – | –
48 | N#Cc1cccc(C(=O)N2CCC3(CC2)CC(CO)N(C(=O)c2ccccc2)C3)c1 (centres undefined) | – | inactive: -0.126% | –
49 | O=C(c1cccnc1)N1CCC(OC2CCN(c3ccccc3)CC2)CC1 | – | inactive: -27.5% | –
50 | CN(Cc1cccc(C(F)(F)F)c1)Cc1cccc(C(F)(F)F)c1 | – | inactive: -4.01% | –
51 | CCOC(=O)[C@@H]1CN(C(=O)c2cc3ccccc3s2)[C@H]2c3ccc(OC)cc3O[C@@H]12 | inconclusive: 44.7 µM [inhibitor, partial curve] | – | –
52 | O=C(NCC1CCN(c2cc(-c3ccc(Cl)cc3)[nH]n2)CC1)c1ccc2nc[nH]c2c1 | active: 35.5 µM | – | –
53 | CCOc1ccc(CN2CCN(C/C=C/c3ccccc3OC)CC2CCO)cc1 (centres undefined) | inconclusive: 56.2 µM [inhibitor, partial curve, poor fit] | – | –
54 | Cc1ccccc1-c1cc(-c2c(C)noc2C)cc2c1C(=O)N(C)C2 | inconclusive: 35.5 µM [inhibitor, partial curve, poor fit] | – | –
55 | O=C(c1ccc(Cn2ccnc2)o1)N1CC[C@@H]2CN(Cc3ccccc3)[C@@H]2C1 | – | inactive: -0.779% | –
56 | Cc1nc(-c2ccccc2)n(CC(=O)Nc2cccc(C#N)c2)c(=O)c1CCO | inconclusive: 39.8 µM [inhibitor, partial curve, poor fit] | – | –
57 | CNC(=O)c1cc(C)nc2onc(C3CCN([S+](=O)([O-])c4cccs4)CC3)c12 | inconclusive: 50.1 µM [inhibitor, partial curve, poor fit] | – | –
58 | CC(C)C[C@@H]1N[C@H](C(=O)NCC2CC2)Cc2c[nH]c3cccc1c23 | inconclusive: 63.1 µM [inhibitor, partial curve, poor fit] | – | –
59 | COc1ccccc1C(=O)N1CCN(c2nccc(Nc3ccccc3Cl)n2)CC1 | active: 28.2 µM | – | –
60 | O=C(CCC(F)(F)F)N1CCC2(CCCN(CC3CCCCC3)C2=O)C1 (centres undefined) | – | inactive: -24.1% | –
61 | COc1ccc(-c2cnc3[nH]cc(CC(=O)Nc4ccncc4)c3c2)cc1 | active: 31.6 µM | – | –
62 | COCCCNC(=O)C(NC(=O)C1CC1)C1CCN(C(=O)c2ccccc2)CC1 (centres undefined) | – | inactive: -18% | –
63 | CC(Oc1ccccc1)C(=O)N1CCC2(CC1)NC(=O)N(c1ccccc1Cl)N2 (centres undefined) | inconclusive: 35.5 µM [inhibitor, partial curve] | – | –
64 | CNC(=O)CCn1ncc2cc(OCc3ccccc3-c3ccccc3Cl)ccc21 | inconclusive: 56.2 µM [inhibitor, partial curve, poor fit] | – | –
